# Measured values from the supplement of paper PMC10338343.
# ± gives the standard deviation. The full ranking holds about 5,500 sequences; the median of “pre-steady-state target cleavage rate” is about 0.1, and the highest 2% start at about 0.64. This is a selection; strong and weak results do not stand in their true shares.
# Test system: MIWI (PIWIL1) piRISC loaded with piRNA #2 (30 nt)
# Experiment: pre-steady-state target cleavage rate (min^-1); MIWI and MILI are mouse PIWI proteins and EfPiwi is from a freshwater sponge; tags in brackets are library labels; higher = faster piRNA-guided slicing of the target
# Conditions: guide: piRNA #2 5'p-UUAGGUAACCCAGUAGAUCCAGAGGAAUUC; auxiliary factor: 500 nM mouse GTSF1
# Outline: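 Sequencing of uncleaved targets, normalised to depth and to weakly complementary targets, was the readout of this Cleave-'n-Seq assay. A transcribed, DNA-blocked target RNA library (0.1 nM) was mixed with 1 nM active affinity-purified piRISC carrying one synthetic guide, with or without 500 nM GTSF1 partner protein, in HEPES–potassium acetate buffer at 33 °C for 0–8 or 0–960 min. Three trials were pooled, k3 was capped at 0.0001 min^-1, and a burst-and-steady-state fit gave the pre-steady-state cleavage rate.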
row,Sequence,pre-steady-state target cleavage rate
1,CUUUUCCUCUGGAUCUACAGGGUUUCCUAA,0.143 ± 0.021
2,CAAUUCCACUGGAUCUACUCGGUUACCUAA,0.0731 ± 0.021
3,CUUAUCCUCUGGAUCUACUGGGUUUCCUAA,0.369 ± 0.07
4,CUUAUCCUCUGGAUCUUCUGGGUUACCAAA,0.209 ± 0.048
5,CUUUUCCUCUGGAUCUACUGGGAUACCAAA,0.152 ± 0.035
6,CUUAAGCUCUGGAACUACUGGCUUACCUAA,0.0572 ± 0.013
7,GAAUUCCUCUGGAUCUACUGGGUUACGAAA,0.353 ± 0.052
8,GAAUUCCUCUGGAUCUAGAGGGUUACCUAA,0.0178 ± 0.0056
9,CAAUUCCUCUGGAUCUACUGGGAUACCUUA,0.219 ± 0.046
10,CUAUUCUCUCUGGAUCUACUGGGUUACCUAA,0.208 ± 0.028
11,CUUUUCCUCUGCAUGUACUGGGUUACCUAA,0.437 ± 0.023
12,CUUAACCUCAGCAUCUACUGGGUUACCUAA,0.265 ± 0.023
13,CAAUUCCUCUGGAUGUACUGGGUUUCCUAA,0.395 ± 0.069
14,CUUAUCCUCUGGAUCAACUGGGAUACCUAA,0.148 ± 0.022
15,CUUAAGGUCUGGAUCUAGUGGGUUUCCUAA,0.0268 ± 0.0058
16,CUUAAGGAGUGCGAUCUACUGGGUUACCUAA,0.0085 ± 0.0067
17,CUUAAGGAGACCUACUACACCGUUACCUAA,0.00443 ± 0.0017
18,CUUAUCCACUGGAUCUACUGCGUUACCUAA,0.444 ± 0.06
19,CUUUUCCUCUGGAUGUACUGGGUUAGCUAA,0.286 ± 0.033
20,GAAUACCUCUGGAUCUACUGGGUUUCCUAA,0.298 ± 0.056
21,GAAUUCCUCUGGAUCUACUGGGUAACCAAA,0.112 ± 0.038
22,GAAUUCCACUGGAUCUACUGGCUUACCUAA,0.194 ± 0.021
23,GAAUUCCUCUGGAUCUACUUGGGUUACCUAA,0.00445 ± 0.0039

row,Sequence,pre-steady-state target cleavage rate
1,GAAUUCCUCUGGAACUACUGCGUUACCUAA,0.345 ± 0.039
2,CUUAAGGACUGGAUCUACUGGCUUACCUAA,0.0439 ± 0.032
3,CUUAAGGACUGGUUCUACUGGGUUAGCUAA,0.0222 ± 0.021
4,CUUAAGGAGUGGAUCUACUGGGUUACUUAA,0.222 ± 0.038
5,CUUAAGGACUGGAUCUAUUGGGUUACCUAA,0.0994 ± 0.033
6,GAAUUCCUCUGGAUCUAAUGGGUUACCUAA,0.121 ± 0.022
7,CUUAAGCUCAGGAUGUACUGGGUUACCUAA,0.33 ± 0.037
8,GAAUUCGUCUGGAUCUACUGGGUUAGCUAA,0.293 ± 0.068
9,GAAUUCCUCUGGAUCUACUGGGUAACCUUA,0.184 ± 0.048
10,CUUAACCUCUGGAUCUACUGGGUUGACCUAA,0.153 ± 0.014
11,CUUUUCCUCUGGAUCUACUGCGUAACCUAA,0.174 ± 0.032
12,GAAUUCCUCAGGAUCUUCUGGGUUACCUAA,0.442 ± 0.046
13,CUAUUCCUCAGGAUCUACUGGGUUACCUAA,0.595 ± 0.064
14,CUAUUCCUCCUGGAUCUACUGGGUUACCUAA,0.613 ± 0.06
15,CUUAACCUCUGGAUCUACAGGGUUACCAAA,0.138 ± 0.018
16,CUUAAGCUCUGCAUCUACUGGGUUACCAAA,0.18 ± 0.026
17,CUAUUCCUCUGUGAUCUACUGGGUUACCUAA,0.385 ± 0.03
18,CAAUUCCUGUGGAUCUACUGGGUUUCCUAA,0.339 ± 0.049
19,CUUAAGGAGAGGAUCUACUGGUUUACCUAA,0.0137 ± 0.004
20,CUUAUCCUCUGGAUCUACUGGGUUACCAAA,0.489 ± 0.07
21,CUUUUCCUCUGGAUCUACUCGGUUACCUUA,0.062 ± 0.017
22,CUUAAGCUCUGGAUUCUACUGGGUUACCUAA,0.0752 ± 0.0094
23,CUAAUCCUCUGGAUCUACUCGGUUACCUAA,0.0905 ± 0.013

row,Sequence,pre-steady-state target cleavage rate
1,CUUUUCCUCUGGAUCUACUGGCUAACCUAA,0.0159 ± 0.0054
2,CAAUUCCUCUGGAUCAUACUGGGUUACCUAA,0.0132 ± 0.0056
3,CUUAAGGACUGGUUCUACUGCGUUACCUAA,0.0359 ± 0.033
4,CUUUUCCCUCUGGAUCUACUGGGUUACCUAA,0.312 ± 0.042
5,CUAUUCCUCUGGAUCUACUGGGUUAUCUAA,0.613 ± 0.075
6,CUUAUCCUCUGGAUCUUCUGGGUUACCUAA,0.375 ± 0.053
7,GAAUUCCUCUGGAUCUACUCGGUUUCCUAA,0.0428 ± 0.014
8,CUUUUCCAGAGGAUCUACUGGGUUACCUAA,0.0983 ± 0.019
9,CUUAAGGAGAGGUUCUACUGGGUUACGUAA,0.00763 ± 0.0034
10,CAAUUCGUCUGGAUCUACUGGGUUACCUUA,0.378 ± 0.072
11,CUUAAGGACUGGAUCUACUGGGUAUCCUAA,0.0256 ± 0.019
12,CUUAAGGAGUGGAUCUACUGGGUUACGUAA,0.298 ± 0.044
13,GAAUUCCUCUGGAUCCUACUGGGUUACCUAA,0.2 ± 0.046
14,CUAAUCGUCUGGAUCUACUGGGUUACCUAA,0.413 ± 0.055
15,GAAUUCCUCUGGAUCUACUCGGUUACCUAA,0.107 ± 0.02
16,CUUAAGGAGACGAUCUACUGGGUUACCCAA,0.00413 ± 0.0025
17,CAAUUCCUCUGGAUCUACUGGGUAACGUAA,0.241 ± 0.061
18,GAAUUCCUCUGGAUCUACUGGGUAAGCUAA,0.224 ± 0.037
19,CUUUUGCUCUCGAUCUACUGGGUUACCUAA,0.382 ± 0.027
20,CUUAAGCACUGGAUCUACUCGGUUACCUAA,0.0367 ± 0.012
21,CUUAUCGUCUGGAUCUACUGGGUUAGCUAA,0.193 ± 0.054
22,CUUUUCCUCUCGAUCUACUGCGUUACCUAA,0.845 ± 0.072
23,CUUAAGGUCUGGAUCUACUGGGUUACCGAA,0.1 ± 0.018

row,Sequence,pre-steady-state target cleavage rate
1,CUUAUCCUCUGGUUCUACUGGGUUUCCUAA,0.166 ± 0.064
2,CUAUUCCUCGUGGAUCUACUGGGUUACCUAA,0.216 ± 0.037
3,CUUAACCUCUGGAACUUCUGGGUUACCUAA,0.248 ± 0.019
4,CAAUUCCUGUGGAUCUACUGGGUUACCUUA,0.47 ± 0.07
5,CUUAAGGACUGGAGCUACUGGGUUACCUAA,0.117 ± 0.052
6,CUUAAGCUCUGGAUCUACAGGGUUACCUUA,0.0779 ± 0.0086
7,CAAUUCCUCUGGAUCUACCGGGUUACCUAA,0.167 ± 0.02
8,GAAUUCCUGUGGAUCUACUCGGUUACCUAA,0.133 ± 0.021
9,CUAAUCCUCUGGAUGUACUGGGUUACCUAA,0.551 ± 0.052
10,CUUAAGGAGACCAUCUUCUGCGUUACCUAA,0.00306 ± 0.0029
11,CUUAUCCUCAGGAUCUACUGGGUUACCUAA,0.602 ± 0.065
12,CUUAAGGUCUGGAUCUACUGGGUUACCAA,0.159 ± 0.029
13,GAAUUGGACUGGAUCUACUGGGUUACCUAA,0.19 ± 0.078
14,CUUAAGGACUGGAUCUACUGGGCUACCUAA,0.0533 ± 0.029
15,CUUAUCCUCUGGAUCAACUGGGUUACCUUA,0.318 ± 0.043
16,CUUUUCCUCCUGGAUCUACUGGGUUACCUAA,0.53 ± 0.058
17,CUUAAGCUGACGAUCUACUGGGUUACCUAA,0.0245 ± 0.0043
18,CUUAAGGUCUGGAUCUACUGGGUAACCAAA,0.0111 ± 0.0067
19,CUUAUCCUCUGGAAGAACUGGGUUACCUAA,0.0642 ± 0.023
20,GAAUUCCUCAGGAUCUACUGGGUUUCCUAA,0.438 ± 0.082
21,CUUAAGCUCUGGAUCUACUGGGAUAGCUAA,0.0795 ± 0.015
22,CUUAAGGAGACCAUCUACUGGGUAUACCUAA,0.00537 ± 0.0038
23,CUAUUCCUCUGGAUCUACAGGGUUUCCUAA,0.114 ± 0.018
